Viability of KB3-1 and Nalm-6 cells after 48 h of drug alone (CellTiter-Glo), 11 doses over about 4.5 log units. % of DMSO wells, lower = more cell loss; AC50 from the fitted curve, lower = more potent. No active / inactive call. Nalm-6 was screened in two runs. AC50 is listed only for well-fitted inhibitory curves. KB3-1 is a HeLa-derived carcinoma line, Nalm-6 a B-cell precursor leukaemia line.
Key:
KB3-1 = assay: viability (% of DMSO control); higher = more viable cells
Protocol: (§1)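 Eleven-dose screen of the NCATS MIPE 3 library on cells without co-treatment; CellTiter-Glo after 48 h, as % of DMSO wells.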

Nalm-6 = assay: as above
Protocol: as §1

Work on `Cc1cc(SCc2sc(-c3ccc(C(F)(F)F)cc3)nc2C)ccc1OCC(=O)O` yielded a viability (KB3-1; 0.00078 µM) of 92.8%, a viability (KB3-1; 0.00234 µM) of 104% and a viability (KB3-1; 0.00702 µM) of 97.6%. It also gave a viability (KB3-1; 0.0211 µM) of 106%, a viability (KB3-1; 0.0632 µM) of 101% and a viability (KB3-1; 0.19 µM) of 102%. For the same compound, the viability (KB3-1; 0.569 µM) was 102%, the viability (KB3-1; 1.71 µM) was 98.7% and the viability (KB3-1; 5.12 µM) was 100%. For the same compound, the viability (KB3-1; 15.4 µM) was 106%, the viability (KB3-1; 46.1 µM) was 88% and the viability (Nalm-6; run: 1, 0.00078 µM) was 105%. The viability (Nalm-6; run: 1, 0.00234 µM) was 106%, the viability (Nalm-6; run: 1, 0.00702 µM) was 113% and the viability (Nalm-6; run: 1, 0.0211 µM) was 107%. It also gave a viability (Nalm-6; run: 1, 0.0632 µM) of 101%, a viability (Nalm-6; run: 1, 0.19 µM) of 114% and a viability (Nalm-6; run: 1, 0.569 µM) of 118%. It also gave a viability (Nalm-6; run: 1, 1.71 µM) of 119%, a viability (Nalm-6; run: 1, 5.12 µM) of 119% and a viability (Nalm-6; run: 1, 15.4 µM) of 120%. It also gave a viability (Nalm-6; run: 1, 46.1 µM) of 77.6%, a viability (Nalm-6; run: 2, 0.00078 µM) of 107% and a viability (Nalm-6; run: 2, 0.00234 µM) of 103%. It also gave a viability (Nalm-6; run: 2, 0.00702 µM) of 98.2%, a viability (Nalm-6; run: 2, 0.0211 µM) of 105% and a viability (Nalm-6; run: 2, 0.0632 µM) of 107%. For the same compound, the viability (Nalm-6; run: 2, 0.19 µM) was 105%, the viability (Nalm-6; run: 2, 0.569 µM) was 106% and the viability (Nalm-6; run: 2, 1.71 µM) was 115%. The viability (Nalm-6; run: 2, 5.12 µM) was 116%, the viability (Nalm-6; run: 2, 15.4 µM) was 111% and the viability (Nalm-6; run: 2, 46.1 µM) was 82.7%.
In the case of `CC1=CC=CC=C1N2\C(=N/C3=C(C(=CC=C3)C)C2=O)C[N]4C=NC5=C4N=CN=C5N`, the viability (KB3-1; 0.00078 µM) is reported as 105%, the viability (KB3-1; 0.00234 µM) is reported as 109% and the viability (KB3-1; 0.00702 µM) is reported as 111%. For the same compound, the viability (KB3-1; 0.0211 µM) was 109%, the viability (KB3-1; 0.0632 µM) was 110% and the viability (KB3-1; 0.19 µM) was 113%. It also gave a viability (KB3-1; 0.569 µM) of 107%, a viability (KB3-1; 1.71 µM) of 111% and a viability (KB3-1; 5.12 µM) of 111%. The viability (KB3-1; 15.4 µM) was 104% and the viability (KB3-1; 46.1 µM) was 85.6%.
Compound `Cc1cccc(-c2[nH]c(C(C)(C)C)nc2-c2ccc3nccnc3c2)n1` has a viability (KB3-1; 0.00078 µM) of 102%, a viability (KB3-1; 0.00234 µM) of 102% and a viability (KB3-1; 0.00702 µM) of 102%. The viability (KB3-1; 0.0211 µM) was 99.8%, the viability (KB3-1; 0.0632 µM) was 107% and the viability (KB3-1; 0.19 µM) was 109%. The viability (KB3-1; 0.569 µM) was 103%, the viability (KB3-1; 1.71 µM) was 102% and the viability (KB3-1; 5.12 µM) was 98.5%. It also gave a viability (KB3-1; 15.4 µM) of 100%, a viability (KB3-1; 46.1 µM) of 81.7% and a viability (Nalm-6; run: 1, 0.00078 µM) of 104%. For the same compound, the viability (Nalm-6; run: 1, 0.00234 µM) was 106%, the viability (Nalm-6; run: 1, 0.00702 µM) was 106% and the viability (Nalm-6; run: 1, 0.0211 µM) was 112%. It also gave a viability (Nalm-6; run: 1, 0.0632 µM) of 116%, a viability (Nalm-6; run: 1, 0.19 µM) of 108% and a viability (Nalm-6; run: 1, 0.569 µM) of 111%. The viability (Nalm-6; run: 1, 1.71 µM) was 110%, the viability (Nalm-6; run: 1, 5.12 µM) was 116% and the viability (Nalm-6; run: 1, 15.4 µM) was 115%. The viability (Nalm-6; run: 1, 46.1 µM) was 85.7%, the viability (Nalm-6; run: 2, 0.00078 µM) was 110% and the viability (Nalm-6; run: 2, 0.00234 µM) was 110%. The viability (Nalm-6; run: 2, 0.00702 µM) was 101%, the viability (Nalm-6; run: 2, 0.0211 µM) was 106% and the viability (Nalm-6; run: 2, 0.0632 µM) was 111%. The viability (Nalm-6; run: 2, 0.19 µM) was 107%, the viability (Nalm-6; run: 2, 0.569 µM) was 106% and the viability (Nalm-6; run: 2, 1.71 µM) was 116%. The viability (Nalm-6; run: 2, 5.12 µM) was 109%, the viability (Nalm-6; run: 2, 15.4 µM) was 115% and the viability (Nalm-6; run: 2, 46.1 µM) was 101%.
With `COC1=CC(=C2C(=O)N(COC/3=C/C(=O)N4\C=C/C=C(OCCN5CCCCC5)\C4=N3)S(=O)(=O)C2=C1)C(C)C` the viability (KB3-1; 0.00078 µM) was 95.5%, the viability (KB3-1; 0.00234 µM) was 97.1% and the viability (KB3-1; 0.00702 µM) was 99.9%. For the same compound, the viability (KB3-1; 0.0211 µM) was 103%, the viability (KB3-1; 0.0632 µM) was 107% and the viability (KB3-1; 0.19 µM) was 103%. For the same compound, the viability (KB3-1; 0.569 µM) was 103%, the viability (KB3-1; 1.71 µM) was 103% and the viability (KB3-1; 5.12 µM) was 102%. It also gave a viability (KB3-1; 15.4 µM) of 105%, a viability (KB3-1; 46.1 µM) of 3.12% and a viability (Nalm-6; run: 1, 0.00078 µM) of 107%. For the same compound, the viability (Nalm-6; run: 1, 0.00234 µM) was 109%, the viability (Nalm-6; run: 1, 0.00702 µM) was 110% and the viability (Nalm-6; run: 1, 0.0211 µM) was 119%. For the same compound, the viability (Nalm-6; run: 1, 0.0632 µM) was 122%, the viability (Nalm-6; run: 1, 0.19 µM) was 115% and the viability (Nalm-6; run: 1, 0.569 µM) was 121%. It also gave a viability (Nalm-6; run: 1, 1.71 µM) of 109%, a viability (Nalm-6; run: 1, 5.12 µM) of 106% and a viability (Nalm-6; run: 1, 15.4 µM) of 108%. It also gave a viability (Nalm-6; run: 1, 46.1 µM) of 0.643%, a viability (Nalm-6; run: 2, 0.00078 µM) of 105% and a viability (Nalm-6; run: 2, 0.00234 µM) of 109%. It also gave a viability (Nalm-6; run: 2, 0.00702 µM) of 100%, a viability (Nalm-6; run: 2, 0.0211 µM) of 110% and a viability (Nalm-6; run: 2, 0.0632 µM) of 105%. It also gave a viability (Nalm-6; run: 2, 0.19 µM) of 107%, a viability (Nalm-6; run: 2, 0.569 µM) of 105% and a viability (Nalm-6; run: 2, 1.71 µM) of 110%. The viability (Nalm-6; run: 2, 5.12 µM) was 103%, the viability (Nalm-6; run: 2, 15.4 µM) was 101% and the viability (Nalm-6; run: 2, 46.1 µM) was 0.735%.
For `C[N]1C2=C(SC(=C2)[S+](C)[O-])C\3=C1C(=O)N(CC4=CC(=CC=C4)N)\N=C3` (stereo unspecified), the viability (KB3-1; 0.00078 µM) was 101%, the viability (KB3-1; 0.00234 µM) was 101% and the viability (KB3-1; 0.00702 µM) was 94.4%. For the same compound, the viability (KB3-1; 0.0211 µM) was 100%, the viability (KB3-1; 0.0632 µM) was 101% and the viability (KB3-1; 0.19 µM) was 105%. The viability (KB3-1; 0.569 µM) was 105%, the viability (KB3-1; 1.71 µM) was 103% and the viability (KB3-1; 5.12 µM) was 98.6%. For the same compound, the viability (KB3-1; 15.4 µM) was 98%, the viability (KB3-1; 46.1 µM) was 31.8% and the viability (Nalm-6; run: 1, 0.00078 µM) was 58.1%. The viability (Nalm-6; run: 1, 0.00234 µM) was 95.9%, the viability (Nalm-6; run: 1, 0.00702 µM) was 104% and the viability (Nalm-6; run: 1, 0.0211 µM) was 112%. For the same compound, the viability (Nalm-6; run: 1, 0.0632 µM) was 120%, the viability (Nalm-6; run: 1, 0.19 µM) was 116% and the viability (Nalm-6; run: 1, 0.569 µM) was 127%. For the same compound, the viability (Nalm-6; run: 1, 1.71 µM) was 113%, the viability (Nalm-6; run: 1, 5.12 µM) was 127% and the viability (Nalm-6; run: 1, 15.4 µM) was 124%. It also gave a viability (Nalm-6; run: 1, 46.1 µM) of 128%, a viability (Nalm-6; run: 2, 0.00078 µM) of 102% and a viability (Nalm-6; run: 2, 0.00234 µM) of 100%. For the same compound, the viability (Nalm-6; run: 2, 0.00702 µM) was 99.1%, the viability (Nalm-6; run: 2, 0.0211 µM) was 112% and the viability (Nalm-6; run: 2, 0.0632 µM) was 103%. For the same compound, the viability (Nalm-6; run: 2, 0.19 µM) was 101%, the viability (Nalm-6; run: 2, 0.569 µM) was 113% and the viability (Nalm-6; run: 2, 1.71 µM) was 103%. It also gave a viability (Nalm-6; run: 2, 5.12 µM) of 115%, a viability (Nalm-6; run: 2, 15.4 µM) of 109% and a viability (Nalm-6; run: 2, 46.1 µM) of 118%.
`ClC1=C[NH]N=C1C\2NC(=N\C3=C2C(=O)CCC3)/NC4=NC5=CC=CC=C5O4` (stereo unspecified) gave a viability (KB3-1; 0.00078 µM) of 97.3%, a viability (KB3-1; 0.00234 µM) of 103% and a viability (KB3-1; 0.00702 µM) of 103%. For the same compound, the viability (KB3-1; 0.0211 µM) was 100%, the viability (KB3-1; 0.0632 µM) was 102% and the viability (KB3-1; 0.19 µM) was 103%. For the same compound, the viability (KB3-1; 0.569 µM) was 106%, the viability (KB3-1; 1.71 µM) was 105% and the viability (KB3-1; 5.12 µM) was 109%. The viability (KB3-1; 15.4 µM) was 109%, the viability (KB3-1; 46.1 µM) was 91.3% and the viability (Nalm-6; run: 1, 0.00078 µM) was 68.4%. The viability (Nalm-6; run: 1, 0.00234 µM) was 92.2%, the viability (Nalm-6; run: 1, 0.00702 µM) was 91.4% and the viability (Nalm-6; run: 1, 0.0211 µM) was 103%. The viability (Nalm-6; run: 1, 0.0632 µM) was 105%, the viability (Nalm-6; run: 1, 0.19 µM) was 120% and the viability (Nalm-6; run: 1, 0.569 µM) was 115%. It also gave a viability (Nalm-6; run: 1, 1.71 µM) of 109%, a viability (Nalm-6; run: 1, 5.12 µM) of 111% and a viability (Nalm-6; run: 1, 15.4 µM) of 84.8%. The viability (Nalm-6; run: 1, 46.1 µM) was 69.1%, the viability (Nalm-6; run: 2, 0.00078 µM) was 94.6% and the viability (Nalm-6; run: 2, 0.00234 µM) was 95.5%. It also gave a viability (Nalm-6; run: 2, 0.00702 µM) of 98%, a viability (Nalm-6; run: 2, 0.0211 µM) of 106% and a viability (Nalm-6; run: 2, 0.0632 µM) of 108%. The viability (Nalm-6; run: 2, 0.19 µM) was 104%, the viability (Nalm-6; run: 2, 0.569 µM) was 110% and the viability (Nalm-6; run: 2, 1.71 µM) was 116%. For the same compound, the viability (Nalm-6; run: 2, 5.12 µM) was 98.3%, the viability (Nalm-6; run: 2, 15.4 µM) was 106% and the viability (Nalm-6; run: 2, 46.1 µM) was 70.1%.
